The target in assay [1] is T1, LILRB2重组蛋白(购于ACRO，Cat# LI2-H5220) (UniProt Q8N423 22-461).
T1 construct: Bought reagent; Used as analyte at '60nm' in BLI
In words: BLI (Octet QKe), antibody captured on AHC probe, LILRB2 as analyte, 1:1 fit. On the technique in general: In BLI a coated tip is dipped into the sample, and binding shifts an interference pattern.

Assay [2] has as its target T2, LILRB2-mFc(NCBI号:AAH36827，22-461氨基酸) (UniProt Q8N423 22-461).
T2 construct: range 22-461; also called 重组LILRB2; not shown: mouse Fc (mFc)
Nature of the assay: blocking ELISA: LILRB2-mFc binding to coated HLA-G.

In assay [3] the target is T2, LILRB2-mFc(NCBI号:AAH36827，22-461氨基酸). In words: blocking ELISA: LILRB2-mFc binding to coated HLA-G (partial blocking). Background: An ELISA detects its analyte on a solid surface through an enzyme-linked reagent.

This is an account of results in patent publication CN114805568A (BEIJING KENUO XINCHENG TECH CO LTD, dated 2022).

B1: chE1 (Fc fusion)
chain: QVQLQESGGGLVQPGGSLRLSCVGSGFTFRHYAMNWARQAPGKGIEWVASIGTPGLPEAYADSVKGRFTISRDDAKNTLYLQMDNLKTEDTGVYYCARSSDCGGGTCRPPGQGTQVTVSSAS[human IgG1 Fc with changes not shown]
notes: expressed in HEK293, Protein A purified; also called chE1嵌合抗体; chE1重组蛋白
One may read the Kd as the free concentration of one partner at which half of the binding sites on the other are occupied at equilibrium, for simple one-to-one binding. As a reminder, the koff is the rate constant with which the complex falls apart. The term kon denotes the rate constant with which the complex forms. A higher kon goes with fast association. In the case of B1, in assay [1], the affinity, expressed as Kd, was 3.66 nM; the koff worked out at 0.000593 s⁻¹; the kon amounted to 162000 M⁻¹ s⁻¹.

B2: chD6 (Fc fusion)
chain: QVQLQESGGGLVQAGGSLRLSCAASGFTGSGYCMGWFRQVPGKEREKVATIYNGYPGDGDPSYDDSVKGRFTISQDTAKNTVYLQMNDLKPEDTAMYYCAAINAYGSNWCQIVEYAHWGVGTQVTVSSAS[human IgG1 Fc with changes not shown]
notes: expressed in HEK293, Protein A purified; also called chD6嵌合抗体; chD6重组蛋白
The term IC50 denotes the midpoint of a concentration-inhibition curve. B2: the IC50 in assay [2] amounted to 0.952 nM. Moreover, in assay [1], the Kd stood at 0.411 nM, the koff was determined as 0.000159 s⁻¹ and the kon worked out at 387000 M⁻¹ s⁻¹.

B3: chA3 (Fc fusion)
chain: QVQLQESGGGLVQAGGSLTLSCAVSGISFGTRAMAWFRQAPGKEREGVASIQADTYISYADSVKGRFTISKDSGKNTLNLQMNNLKPEDTAVYYCAVGDLWGSHLQPHGYNYWGQGTQVTVSSAS[human IgG1 Fc with changes not shown]
notes: expressed in HEK293, Protein A purified; also called chA3嵌合抗体; chA3重组蛋白
Consider B3, for which, in assay [2], the IC50 is 0.928 nM. Further, in assay [1], binding was put at a Kd of 0.143 nM, the off-rate constant (koff) stood at 4.95e-05 s⁻¹ and the kon was found to be 347000 M⁻¹ s⁻¹.

B4: chB9 (Fc fusion)
chain: QVQLQESGGGSVQAGGSLRLSCAASGYTDSRYCMGWFRQVPGKEREKVATIYNGDGNTYYDDSVKGRFTISQGNAKNTLFLEMNNLKPEDTAMYYCAAIKAYGSNWCPAVEYSDWGQGTQVTVSSAS[human IgG1 Fc with changes not shown]
notes: expressed in HEK293, Protein A purified; also called chB9嵌合抗体; chB9重组蛋白
B4: the IC50 in assay [2] was 1.04 nM. Besides, in assay [1], the koff is below 1e-07 s⁻¹ and the kon is 424000 M⁻¹ s⁻¹.

B5: chC7 (Fc fusion)
chain: QVQLQESGGGLVQAGGSLRLSCAASEYTDSRYCMAWFRQVPGKEREKVAIIYNGDGNTYYDDSVKGRFTISQSVAKNTLYLQMNNLKPEDTGMYYCAAIKAYGSNWCRAVEYSDWGQGTQVTVSSAS[human IgG1 Fc with changes not shown]
notes: expressed in HEK293, Protein A purified; also called chC7嵌合抗体; chC7重组蛋白
As for B5, in assay [2], the IC50 was 0.834 nM. In assay [1], this molecule had a Kd below 0.001 nM, a koff below 1e-07 s⁻¹ and a kon of 388000 M⁻¹ s⁻¹.

B6: chA7 (Fc fusion)
chain: QVQLQESGGGSVQPGGRLRLSCETSGYTSSRNWMGWFRQAPGKEREGVASIYTDNGSAYYADSVKGRFTISVDNAKNTVYLQMNSLKPEDTAMYYCAGRIRPPAGTRWPGPLVESAYNTWGRGTQVTVSSAS[human IgG1 Fc with changes not shown]
notes: expressed in HEK293, Protein A purified; also called chA7嵌合抗体; chA7重组蛋白
In assay [1], B6 displayed a Kd of 6.03 nM, a koff of 0.00264 s⁻¹ and a kon of 438000 M⁻¹ s⁻¹.

B7: chD5 (Fc fusion)
chain: QVQLQESGGGLVQAGGSLRLSCVASGYPRSSVCMGWYRQAPGKEREGVAAIFTGGGTPYYGDSVKGRFTISQDNAVNTVSLQMNDLKPEDTAMYYCAAELTYCSGGPWTDPVGYWGQGTQVTVSSAS[human IgG1 Fc with changes not shown]
notes: expressed in HEK293, Protein A purified; also called chD5嵌合抗体; chD5重组蛋白
B7 yielded an IC50 in assay [2] of 0.537 nM. In assay [1], the Kd was below 0.001 nM, the koff is below 1e-07 s⁻¹ and the kon came out at 398000 M⁻¹ s⁻¹.

B8: chE5 (Fc fusion)
chain: QVQLQESGGGSVQAGGSLRLSCVASGYPRSSVCMGWYRQAPGKEREGVAAIFTGGGTPYYGDSVKGRFTISQDNAVNTVSLQMNDLKPEDTAMYYCAVELTYCSGGPWTDPVGYWGQGTQVTVSSAS[human IgG1 Fc with changes not shown]
notes: expressed in HEK293, Protein A purified; also called chE5嵌合抗体; chE5重组蛋白
As for B8, the IC50 in assay [2] came to 0.604 nM. In assay [1], the Kd was determined as 0.165 nM, the koff turned out to be 5.61e-05 s⁻¹ and the kon was 341000 M⁻¹ s⁻¹.

B9: chG3 (Fc fusion)
chain: QVQLQESGGGSVQAGGSLRLSCAASGYPRSSVCMGWYRQAPGKEREGVAAIFTGGGRPYYADSVKGRFTISQDNAVNTVSLQMNNLKPEDTAMYYCAAELTYCSGGPWTDPVGYWGQGTQVTVSSAS[human IgG1 Fc with changes not shown]
notes: expressed in HEK293, Protein A purified; also called chG3嵌合抗体; chG3重组蛋白
For B9, the IC50 in assay [2] came to 0.593 nM. In assay [1], this molecule had a Kd of 0.44 nM, a koff of 0.00013 s⁻¹ and a kon of 295000 M⁻¹ s⁻¹.

B10: chE8 (Fc fusion)
chain: QVQLQESGGGLVQPGGSLNLSCAASGFTFSNSFMTWVRQAPGKRPEWVREWVAGISGDGQYTSYADFAKGRFTISRDNAKSTMYLQLNNLKTEDTAIYYCEKSSTERGQGTQVTVSSAS[human IgG1 Fc with changes not shown]
notes: expressed in HEK293, Protein A purified; also called chE8嵌合抗体; chE8重组蛋白
Regarding B10, the IC50 in assay [3] turned out to be 1.19 nM. Moreover, in assay [1], the Kd stood at 6.36 nM, the koff turned out to be 0.00252 s⁻¹ and the kon amounted to 396000 M⁻¹ s⁻¹.
